For the test, the system named is 556581-035-R-J1-PDC spheroids with HUVEC/MSC, viability. The test is described as follows: Anticancer human tumor 556581-035-R-J1-PDC patient-derived ovarian carcinoma cell line growth inhibition [IpAb]. The following applies: for viability, T/C: stronger effect = lower value; for IC50: compound alone, run of 06/01/2021. The source says:
Combinatorial screen of targeted agents with ipatasertib and abemaciclib in multi-cell type tumor spheroids
A high-throughput screen of multi-cell type tumor spheroids was designed to identify active combinations of targeted small molecules and ipatasertib or abemaciclib. Complex spheroids include a stromal component modeled by human endothelial cells (HUVEC) and fibroblasts modeled by human mesenchymal stem cells (MSCs). The concentration ranges selected for each drug and investigational agent were based upon clinically achievable concentrations if the clinical Cmax of the agent was known.
Compounds. The drugs and investigational agents: ipatasertib (NSC767898), abemaciclib(NSC768073), selumetinib (NSC741078), trametinib (758246), adavosertib (NSC754352), everolimus (NSC733504), sapanisertib (NSC764658), vemurafenib (NSC761431), venetoclax (NSC766270), copanlisib (NSC809693), apelisib (NSC765974), palbociblib (NSC758247), vemurafenib (NSC761431), dabrafenib (NSC764134), ravoxertinib (NSC781343), BMS-387032 (NSC767048), sotorasib (NSC818433), talazoparib (NSC767125) and afursertib (NSC778305), were obtained from the National Cancer Institute (NCI) Developmental Therapeutics Program Chemical Repository. The FDA-approved anticancer drug set is available from the NCI Developmental Therapeutics Program. […] The stock solutions were prepared in dimethyl sulfoxide (DMSO, Sigma-Aldrich, St. Louis, MO, cat. D2650) at 800-fold the tested concentration and stored at -70 degrees C prior to their use. All drugs and investigational agents were tested over a range starting from a high concentration at or near the clinical Cmax and decreasing in half-log increments. If the clinical Cmax for an agent had not been determined, the highest concentration tested was 10 microM.
NCI60 Cell Culture. NCI60 cell lines were obtained from the NCI Developmental Therapeutics Program Tumor Repository. For each lot of cells, the Repository performed Applied Biosystems AmpFLSTR Identifiler testing with PCR amplification to confirm consistency with the published Identifier STR profile for each cell line. Cells were kept in continuous culture for no more than 20 passages. The optimal seeding densities for each of the cell lines at each time point assessed were determined prior to performing the concentration response studies. Briefly, the NCI60 human tumor lines were grown as monolayers in RPMI 1640 medium supplemented with 10% FBS and 2 mmol/L L-glutamine.
An additional 9 lines were from the NCI60 cell line panel including MDA-MB-231 breast carcinoma, MDA-MB-468 breast carcinoma, MCF7 breast carcinoma, Hs578T breast carcinoma, MALME-3M melanoma, SK-MEL-2 melanoma, SK-OV-3 ovarian carcinoma, DU-145 prostate carcinoma, PC-3 prostate carcinoma, all cell lines along with major genetic alterations are listed on Table 2. Pooled donor human umbilical vein endothelial cells (HUVEC, Lonza, cat. CC-2519) and human mesenchymal stem cells (hMSC, Lonza, cat. PT-2501) were purchased from Lonza (Walkersville, MD).
PDMR cell lines were grown in complete medium (DC medium): Dulbecco's modified Eagle's medium (DMEM)/F12 supplemented with 5% fetal bovine serum (FBS), 2 mM L-glutamine, 100 U/mL penicillin and 100 µg/ml streptomycin, 0.4 µg/ml hydrocortisone, 10 ng/ml epidermal growth factor (EGF) recombinant human protein, 24 µg/mL adenine, and 0.1 mg/mL primocin. During culture from frozen stock vials, PDMR cells were cultured in the same medium containing 10 µM Y-27632 (see Table 3). The PDCs were cultured in complete DMEM/F12 media without 10 microM Y-27632 dihydrochloride for at least two passages prior to the screen. The pooled donor HUVEC and hMSC were cultured in endothelial cell growth medium 2 (PromoCell, Heidelberg, Germany, cat. C-22011) and mesenchymal stem cell growth medium 2 (PromoCell, cat. C-28009), respectively. For all experiments, HUVEC and hMSC were used at passages </=5.
[…]

Not every entry of the source has a single result; some have several. This is not the full list of results. An entry can have further records. Results that share an entry are repeats (runs, samples, wells, individuals or studies). Counts like (3×) stand for listed records that agree. A date in brackets names the month of the test.

The text below walks through data of PubChem BioAssay AID2060338 (Molecular Pharmacology Branch, DTP, NCI, 2025).

The IC50 is the point on the concentration scale where inhibition reaches its midpoint.
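Also: spheroids exposed to compounds for 7 days before readout.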

Consider `CCN1CCN(Cc2ccc(Nc3ncc(F)c(-c4cc(F)c5nc(C)n(C(C)C)c5c4)n3)nc2)CC1`, for which the IC50 was 592 nM, 966 nM, 784 nM, 869 nM, 838 nM, > 1 µM. Besides, the viability, T/C (compound alone 0.01 µM) was 102, 105 (2×), 82.8, 92.6, 90.6, 86.8, 90.1, 101, 76.5, 106, 88.1, 111%. In addition, the viability, T/C (compound alone 0.0316 µM) is 105 (3×), 69.4, 92, 101, 66.3, 108, 92.5, 88, 106, 90.2%. For the same compound, the viability, T/C (compound alone 0.1 µM) was 97.4, 84.2, 63.4, 100, 76.2, 61.7, 94.6, 94.3, 91.8, 107, 83.1, 113, 97.9%. In addition, the viability, T/C (compound alone 0.316 µM) is given as 87.2, 74.2, 62.2, 93.2, 90.5, 68.4, 109, 75.6, 66.9, 92.4, 81.1, 95.9, 67.2%.
As for `CC(C)NCC(C(=O)N1CCN(c2ncnc3c2C(C)CC3O)CC1)c1ccc(Cl)cc1` (centres undefined), the concentration for half-maximal inhibition (IC50) is 9.7 µM and 1.92, 8.52, 2.48, 4.67, 9.96, 2.81, 5.85, 9.67, 9.02, 6.18, 1.17, 2.4 µM [2021-06]. For the setting “compound alone 0.1 µM”, the viability, T/C is 87.8, 94.2, 81.2, 78.4, 87.2, 86, 96.7, 92.3, 89.2, 95.1, 77.2, 104, 94.7%. Moreover, the viability, T/C (compound alone 0.316 µM) is 66.8, 73.9, 92.8, 69.3, 78.9 (2×), 66.4, 80.9, 71.5, 77.5, 75.2, 81.8, 80.8%. Moreover, under “compound alone 1 µM”, the viability, T/C is 59.2, 67, 62.6 (2×), 59.4, 65.6, 69.7, 65.8, 68.5, 81.8, 50.7, 72.9, 58.4%.
